{"source": "ChEMBL document CHEMBL4888484", "about": "“Replenishing the malaria drug discovery pipeline: Screening and hit evaluation of the MMV Hit Generation Library 1 (HGL1) against asexual blood stage Plasmodium falciparum ,using a nano luciferase reporter read-out” (2022)", "note": "The campaign covered roughly 150,000 compounds. About 540 (0.36%) showed an effect of 50% or more. The list shows a part of the results.", "data": [{"test_system": "Plasmodium falciparum", "experiment": "Primary screen in NF54 nanoGlo assay, in single point, at 2uM, 72h; a lower Z score goes with more inhibition", "type": "functional, Erythrocyte", "conditions": "timepoint 72 hour", "units": {"% Inhibition": "%"}, "values": [{"smiles": "c1ccc([C@@H]2CN(C3CC3)CC3(CCN(Cc4ccccn4)CC3)C2)cc1", "% Inhibition": -10, "Z score": 1.74}, {"smiles": "O=c1ccc(-c2ccccc2)nn1CN1CCCCCC1", "% Inhibition": -16, "Z score": 1.99}, {"smiles": "C[C@H]1CCCN1S(=O)(=O)Nc1ccc(-n2ncn(C)c2=O)cc1", "% Inhibition": -13, "Z score": 2.41}, {"smiles": "O=C(COc1ccc(S(=O)(=O)N2CCCCC2)cc1)NC1CCCCC1", "% Inhibition": -9, "Z score": 1.29}, {"smiles": "COc1cccc(S(=O)(=O)N2CCC(n3c(C4CC4)nn(C)c3=O)CC2)c1", "% Inhibition": 3, "Z score": -0.42}, {"smiles": "CCOc1ccccc1CNC(=O)[C@@H](C)C1CCN(C(=O)c2cc3ccccc3[nH]2)CC1", "% Inhibition": 19, "Z score": -1.78}, {"smiles": "O=C1[C@@H](OC2CCN(Cc3cc(F)ccc3F)CC2)CCN1C1CCCC1", "% Inhibition": -15, "Z score": 2.49}, {"smiles": "O=C(c1ccc(S(=O)(=O)c2cccc(F)c2)cn1)N1CCNCC1", "% Inhibition": -19, "Z score": 2.53}, {"smiles": "Cc1cnc(NC(=O)c2cn[nH]c2C)[nH]1", "% Inhibition": 2, "Z score": -0.17}, {"smiles": "O=S(=O)(CCN1CCc2sccc2C1)Cc1ccccc1", "% Inhibition": -7, "Z score": 0.7}, {"smiles": "Cc1nc2cc(C(=O)N3CCC(N4CCc5ccccc5C4)CC3)ccc2s1", "% Inhibition": 0, "Z score": -0.07}, {"smiles": "COc1ccc(CN2C(=O)N[C@@H](CC(=O)N[C@H](CO)Cc3ccccc3)C2=O)cc1", "% Inhibition": -14, "Z score": 1.83}, {"smiles": "CN1CCN(c2cc(-c3ccccc3C(=O)O)nc(N)n2)CC1", "% Inhibition": -7, "Z score": 1.29}, {"smiles": "O=C(NCc1cn[nH]c1)Nc1ccccn1", "% Inhibition": -3, "Z score": 0.66}, {"smiles": "CCN(CC)CCNC1=Nc2ccccc2CCC1", "% Inhibition": 10, "Z score": -1.57}, {"smiles": "Cc1cc2ncn([C@@H](C)c3nc(-c4ccnn4C)cs3)c2cc1C", "% Inhibition": -11, "Z score": 2.13}, {"smiles": "O=C(NC[C@H](OCCO)c1cccs1)c1ccsc1", "% Inhibition": -3, "Z score": 0.51}, {"smiles": "O=C(Nc1cn[nH]c1)C(=O)Nc1ccc(F)cc1Cl", "% Inhibition": -1, "Z score": 0.15}, {"smiles": "CCOc1ccc(NC(=O)Cn2cnc3c(-c4cccc(OC)c4)cn(C)c3c2=O)cc1", "% Inhibition": 40, "Z score": -5.73}, {"smiles": "CC[C@]1(C(=O)O)CCCN(C(=O)CC2CCCC2)C1", "% Inhibition": -6, "Z score": 1.07}, {"smiles": "Cc1ccccc1C1CC1NC(=O)c1cccc(-n2c(C)c[nH]c2=O)c1", "note": "(stereo not drawn)", "% Inhibition": -7, "Z score": 0.96}, {"smiles": "C[C@H](NCCn1cccn1)c1ccc(-c2cccnc2)cc1", "% Inhibition": -4, "Z score": 0.62}, {"smiles": "COc1ccc(NC(=O)[C@H](C(C)C)N(Cc2ccc(C)cc2)C(=O)Cn2nnc3ccccc32)c(OC)c1", "% Inhibition": 14, "Z score": -1.72}, {"smiles": "CC[C@@H](CC#N)NC(=O)c1ccoc1Cl", "% Inhibition": -8, "Z score": 1.12}, {"smiles": "CC(C)NC(=O)N1C[C@H](c2nc(-c3ccc(F)cc3)no2)C2(CCOCC2)C1", "% Inhibition": -4, "Z score": 0.83}, {"smiles": "O=C(Cn1c(-c2cccs2)cc2ccccc21)N1CCOCC1", "% Inhibition": 2, "Z score": -0.24}, {"smiles": "Cc1nn(C)c2nc(-c3ccccn3)nc(N(C)CCc3ccccn3)c12", "% Inhibition": 1, "Z score": -0.22}, {"smiles": "CCCCn1ncc(NC(=O)N2CCC[C@@]23CCNC3)c1C(C)C", "% Inhibition": 5, "Z score": -0.61}, {"smiles": "Cc1cnc(N2C[C@H](OC(C)C)[C@@H](O)C2)nc1N(C)C", "% Inhibition": -5, "Z score": 0.46}, {"smiles": "CC1(C)CN(Cc2ccc(F)cc2)CCN1C(=O)Cn1ncnn1", "% Inhibition": -13, "Z score": 2.15}, {"smiles": "COCCOCc1nc([C@H]2CCN(S(=O)(=O)c3cccc4nsnc34)C2)no1", "% Inhibition": -7, "Z score": 1.39}, {"smiles": "CN1C[C@]2(CCN(c3nnc(C4CCC4)o3)C2)OC1=O", "% Inhibition": -25, "Z score": 2.46}, {"smiles": "CC(=O)N1CCn2c(nnc2[C@@H]2CCCN2Cc2ccccc2)C1", "% Inhibition": -25, "Z score": 3.5}, {"smiles": "O=C(NC1CCC(C(=O)NCCc2cccc(O)c2)C1)OCc1ccccc1", "note": "(stereo not drawn)", "% Inhibition": -3, "Z score": 0.69}, {"smiles": "CC(C)c1noc(-c2ccc(N(C)CCC3(O)CCCC3)nc2)n1", "% Inhibition": -7, "Z score": 0.76}, {"smiles": "CN(C)CCN(CCO)C(=O)c1cc(-n2cccn2)ccc1Cl", "% Inhibition": -7, "Z score": 1.39}, {"smiles": "CCCN1Cc2cccc(NS(=O)(=O)c3cnc4n3CCC4)c2C1", "% Inhibition": -5, "Z score": 0.73}, {"smiles": "CCc1ccc(CNCCN2CCC[C@H](CO)C2)nc1", "% Inhibition": -5, "Z score": 0.93}, {"smiles": "Cc1ccncc1NCc1cnnn1C", "% Inhibition": -9, "Z score": 0.86}, {"smiles": "Cc1oc(-c2ccc(C(=O)NCc3ccccc3F)cc2)nc1CN1CCc2ccccc21", "% Inhibition": -9, "Z score": 1.37}, {"smiles": "CCc1nc2cc(-c3noc(-c4ccc(CS(=O)(=O)c5ccccc5)cc4)n3)ccc2o1", "% Inhibition": -9, "Z score": 0.86}, {"smiles": "CCCCc1nc(C)sc1C(=O)Nc1nc[nH]n1", "% Inhibition": 0, "Z score": 0.04}, {"smiles": "COc1ccccc1OCC(=O)Nc1cc(C)nn1-c1nc2c(cnn2-c2cccc(C)c2)c(=O)[nH]1", "% Inhibition": 2, "Z score": -0.31}, {"smiles": "CCOC(=O)C1CCCN(CC(=O)NC2CCCCNC2=O)C1", "note": "(stereo not drawn)", "% Inhibition": 3, "Z score": -0.31}, {"smiles": "CC(C)Cn1c(C[C@H]2CCN(C(=O)c3n[nH]c4ccccc34)C2)nc2cccnc21", "% Inhibition": 1, "Z score": -0.1}, {"smiles": "CC1CC1C(=O)NC(Cc1nccn1C)c1ccccc1", "note": "(stereo not drawn)", "% Inhibition": -11, "Z score": 2.17}, {"smiles": "CCOc1ccccc1CNc1nc(-c2cccc(OC)c2)no1", "% Inhibition": -13, "Z score": 1.17}, {"smiles": "Cc1n[nH]c([C@@H]2CN(C(=O)c3ccc4ncccc4c3)C[C@H]2C(N)=O)n1", "% Inhibition": 0, "Z score": 0.07}, {"smiles": "CCOC1CC(NC(=O)CS(=O)(=O)C2CCCC2)C12CCCC2", "note": "(stereo not drawn)", "% Inhibition": 4, "Z score": -0.36}, {"smiles": "CN1CC[C@H]2CC[C@@H](C1)N2C(=O)CCOc1ccccc1", "% Inhibition": -8, "Z score": 1.39}, {"smiles": "Cc1cc(OC2CCN(C(=O)c3ccc[n+]([O-])c3)CC2)nc(C)n1", "% Inhibition": -6, "Z score": 1.06}, {"smiles": "Cc1cc(Cl)cc2c1NC(=O)[C@H]1CCCN1C2=O", "% Inhibition": -11, "Z score": 2.02}, {"smiles": "Cc1ccc(OC2CCN(Cc3ccncc3)CC2)c(C(=O)N2C[C@H]3CC[C@H]2C3)c1", "% Inhibition": 9, "Z score": -1.19}, {"smiles": "O=C(CN1CCCC1)Nc1ccc(N2CCn3c(nc4ccccc43)C2)cc1", "% Inhibition": 37, "Z score": -1.11}, {"smiles": "COC[C@H]1CCN(C(=O)c2coc(COc3cccc(C(F)(F)F)c3)n2)C1", "% Inhibition": -15, "Z score": 1.8}, {"smiles": "CCC(CC)C(NC(=O)N1C[C@@H](c2nnc(C)o2)O[C@@H](C)C1)c1cccs1", "note": "(stereo partly drawn)", "% Inhibition": -4, "Z score": 0.68}, {"smiles": "CCc1cnc(N[C@H]2[C@H]3CCO[C@H]3[C@H]2COC)nc1", "% Inhibition": -9, "Z score": 1.5}, {"smiles": "Cc1nn(C)c2nc(NC[C@H]3CN(S(C)(=O)=O)CCO3)sc12", "% Inhibition": 17, "Z score": -2.18}, {"smiles": "c1ccc(-c2ncc(CNCCn3cccn3)s2)cc1", "% Inhibition": -13, "Z score": 1.71}, {"smiles": "CC(C)c1nc([C@H](C)n2ccnc2C(C)C)n(-c2ccccn2)n1", "% Inhibition": -6, "Z score": 0.93}, {"smiles": "Cc1ccccc1NC(=O)N[C@@H]1CNC(=O)C1", "% Inhibition": -3, "Z score": 0.38}, {"smiles": "Fc1ccc2oc(N3CCCO3)nc2c1", "% Inhibition": -15, "Z score": 1.31}, {"smiles": "C#CCN1CCC(C(=O)N2CCCC3CCCC32)CC1", "note": "(stereo not drawn)", "% Inhibition": -9, "Z score": 0.92}, {"smiles": "Cc1nnsc1C(=O)Nc1ccc2cc[nH]c2c1", "% Inhibition": 1, "Z score": -0.18}, {"smiles": "O=S1(=O)C[C@@H]2[C@H](C1)N(Cc1ccccc1)CCN2Cc1ccc(CO)o1", "% Inhibition": -8, "Z score": 1.13}, {"smiles": "CCC(=O)N(Cc1cccc(C)c1)c1ccc(CC(=O)NCc2ccccc2)cc1", "% Inhibition": -7, "Z score": 0.88}, {"smiles": "O=C1NC(c2ccccc2)(C(F)(F)F)C(=O)N1C1CCCCC1O", "note": "(stereo not drawn)", "% Inhibition": 5, "Z score": -0.59}, {"smiles": "Cc1ccccc1CNC(=O)CN1CCC(N(C)CC(=O)NCc2ccccc2C)CC1", "% Inhibition": -6, "Z score": 0.54}, {"smiles": "COc1ccccc1-c1nnc([C@H]2CCN(Cc3cccc(C#N)c3)C2)o1", "% Inhibition": -3, "Z score": 0.41}, {"smiles": "Cc1ncsc1C(=O)N1CCC2(CC1)CC(=O)N(C/C=C/c1ccccc1)C2", "% Inhibition": 1, "Z score": -0.13}, {"smiles": "O=c1c(NC2CCCCC2)nc2ccncc2n1Cc1ccccc1", "% Inhibition": 4, "Z score": -0.43}, {"smiles": "Cc1cn(C)nc1C(=O)NC[C@H]1CN(c2nncs2)CCO1", "% Inhibition": -5, "Z score": 0.64}, {"smiles": "C[C@@H](c1ccc(C(=O)NCCc2c[nH]c3ccccc23)o1)N1CCCCC1", "% Inhibition": 18, "Z score": -2.31}, {"smiles": "C=C[C@](C)(CCOC)C(=O)NCCc1nccn1C", "% Inhibition": -13, "Z score": 1.62}, {"smiles": "FC(F)(F)c1ccnc(N2CC[C@H](c3nnc(-c4ccncc4)o3)C2)n1", "% Inhibition": 2, "Z score": -0.27}, {"smiles": "Fc1cccc(-c2cn[nH]c2C2CCN(Cc3ccccc3)CC2)c1", "% Inhibition": -10, "Z score": 1.29}, {"smiles": "Cn1ncc(Cl)c1C(=O)NCc1nc(C(C)(C)C)no1", "% Inhibition": -9, "Z score": 1.2}, {"smiles": "Cc1c[nH]c(=O)n1-c1cccc(NC(=O)c2ncoc2-c2ccccc2Cl)c1", "% Inhibition": -8, "Z score": 1.51}, {"smiles": "CCc1nn(-c2cccc(C)c2)c(N2CCN(C)CC2)c1CN(CC)Cc1cccc(Cl)c1", "% Inhibition": -14, "Z score": 1.98}, {"smiles": "Cc1n[nH]c(C)c1-c1ccc(-n2ccnc2)nn1", "% Inhibition": 5, "Z score": -0.87}, {"smiles": "CS(=O)(=O)N1C[C@@H]2CCN(Cc3ccc(F)cc3)C[C@]2(CO)C1", "% Inhibition": -3, "Z score": 0.48}, {"smiles": "COC[C@H]1CN(C(C)=O)CC12CCN(C(=O)NCc1ccccc1)CC2", "% Inhibition": -17, "Z score": 1.99}, {"smiles": "Cc1nn(C)c2nc(NCCc3nc(C(C)C)no3)sc12", "% Inhibition": -4, "Z score": 0.65}, {"smiles": "c1c(CN2CCc3[nH]nc(C4CCC4)c3C2)nn2c1CNCCC2", "% Inhibition": 9, "Z score": -1.21}]}]}
